{
  "source": "PubChem BioAssay AID1477",
  "about": "(National Center for Advancing Translational Sciences (NCATS), 2009)",
  "note": "Fewer than 10 of roughly 230,000 compounds were called active. The inconclusive results got no clear call from the source; some entries with a clear call stand among them for comparison. Calls come from the whole dose curve; as a rule, active = well fitted curve in the direction sought with a large enough effect; inconclusive = small, poorly fitted or top-dose-only effect, or effect the other way, or another doubt; inactive = no such curve, though single readings can be large or run the other way. Potencies of inconclusive entries are left out as doubtful fits.",
  "data": [
    {"biological_target": "Runt-related transcription factor 1 (Homo sapiens) + Core-binding factor subunit beta (Homo sapiens) (UniProt Q01196+Q13951)", "sequence (Q01196 whole entry, looked up)": "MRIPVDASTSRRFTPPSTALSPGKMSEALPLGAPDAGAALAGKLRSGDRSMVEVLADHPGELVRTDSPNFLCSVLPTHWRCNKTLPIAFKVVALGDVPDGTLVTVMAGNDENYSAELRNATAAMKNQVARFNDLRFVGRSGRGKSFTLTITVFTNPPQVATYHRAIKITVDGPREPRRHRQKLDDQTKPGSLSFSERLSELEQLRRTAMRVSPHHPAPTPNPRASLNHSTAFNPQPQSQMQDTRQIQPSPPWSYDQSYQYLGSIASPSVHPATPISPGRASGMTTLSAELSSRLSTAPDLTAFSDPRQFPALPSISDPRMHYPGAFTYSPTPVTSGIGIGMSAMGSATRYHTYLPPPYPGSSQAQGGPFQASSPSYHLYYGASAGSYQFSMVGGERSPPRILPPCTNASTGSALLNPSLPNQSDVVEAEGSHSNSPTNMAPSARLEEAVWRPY", "sequence (Q13951 whole entry, looked up)": "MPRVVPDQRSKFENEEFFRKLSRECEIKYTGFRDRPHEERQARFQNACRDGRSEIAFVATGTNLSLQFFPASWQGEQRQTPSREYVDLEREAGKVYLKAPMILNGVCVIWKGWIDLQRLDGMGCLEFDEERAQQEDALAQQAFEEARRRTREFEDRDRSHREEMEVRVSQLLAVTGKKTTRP", "assay": "qHTS Assay for Compounds Blocking the Interaction Between CBF-beta and RUNX1 for the Treatment of Acute Myeloid Leukemia; for activity, negative = inhibition: % of control where 0% means no effect", "settings": "AlphaScreen CBFb-His/RUNX1-biotin binding, biochemical; activity, negative = inhibition: at 59.8 µM (top of the series) unless noted", "summary_of_the_method": "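CBF-beta (His) and RUNX1 (biotin), 30 nM each; 20 min preassociation; + compound, 15 min; + beads 50 ng each (Ni, streptavidin), 90 min; RT; AlphaScreen read.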", "values": [
      {"smiles": "CCOc1ccc2nc(NC(=O)c3ccc(OCC4CCCO4)cc3)sc2c1", "note": "(centres undefined)", "Potency": "inconclusive [inhibitor, single point]"},
      {"smiles": "O=C(Cc1ccc(Br)cc1)Nc1cccc(-c2cn3c(n2)SCC3)c1", "Potency": "inconclusive [inhibitor, single point]"},
      {"smiles": "CCCCC1NC(=S)N(C2CCCCC2)C1=O", "note": "(centres undefined)", "activity, negative = inhibition": "inactive: -1.39%"},
      {"smiles": "COc1ccccc1N1CCN(CC(O)COc2ccc3c(c2)OCO3)CC1", "note": "(centres undefined)", "Potency": "inconclusive [activator, partial curve]"},
      {"smiles": "Cc1ccc(-c2[nH]c3cc(C(=O)NCCCn4ccnc4)ccc3c(=O)c2O)cc1", "Potency": "inconclusive [inhibitor, single point]"},
      {"smiles": "COc1ccc(S(=O)(=O)N2CCCCC2)cc1", "activity, negative = inhibition": "inactive: 4.71%"},
      {"smiles": "O=C(CN1CCN(c2ccc(O)cc2)CC1)Nc1cc([N+](=O)[O-])ccc1Cl", "activity, negative = inhibition": "inactive: 9.72%"},
      {"smiles": "O=C(COC(=O)C1=COCCO1)Nc1ccccc1Oc1ccccc1", "Potency": "inconclusive [inhibitor, single point]"},
      {"smiles": "CCOC(=O)c1cnc(Nc2nc3ccccc3o2)nc1CSC(=S)N(CC)CC", "activity, negative = inhibition": "inactive: -5.28%"},
      {"smiles": "Cc1noc(NS(=O)(=O)c2ccc(NC(=O)CSc3n[nH]c(-c4ccccc4)n3)cc2)c1C", "Potency": "inconclusive [inhibitor, single point]"},
      {"smiles": "CCCCOc1ccccc1C1C(C(=O)OC)=CN(CC)C=C1C(=O)OC", "Potency": "inconclusive [activator, partial curve]"},
      {"smiles": "COc1ccc(/C=C(/C(=O)c2ccc(Cl)cc2Cl)n2cncn2)cc1", "activity, negative = inhibition": "inactive: 1.13%"},
      {"smiles": "Cc1cc(C)c(NC(=O)COC(=O)Cc2ccsc2)c(C)c1", "Potency": "inconclusive [activator, single point]"},
      {"smiles": "COC(=O)C1=C(C)NC(C)=C(C(=O)OCCNCc2ccccc2)C1c1cccc([N+](=O)[O-])c1", "note": "(centres undefined)", "Potency": "inconclusive [inhibitor, partial curve]"},
      {"smiles": "COc1ccc(C(=O)N/N=C/c2sc3ccccc3c2O)cc1", "Potency": "inconclusive [inhibitor, single point]"},
      {"smiles": "CCOc1ccc(/C=C2\\SC(=S)N(C(C(=O)O)c3ccccc3)C2=O)cc1OC", "note": "(centres undefined)", "activity, negative = inhibition": "inactive: -5.45%"},
      {"smiles": "O=C(O)c1ccc(O)c(O)c1", "Potency": "inconclusive [activator, partial curve]"},
      {"smiles": "CCOC(=O)N1CCN(C(c2cccc(OC)c2)c2sc3nc(C)nn3c2O)CC1", "note": "(centres undefined)", "Potency": "inconclusive [inhibitor, single point]"},
      {"smiles": "Cc1ccc(C(C#N)c2ccc(C(=O)c3ccc(F)cc3)cc2)cc1", "note": "(centres undefined)", "activity, negative = inhibition": "inactive: 23.2%"},
      {"smiles": "O=C(O)CNC(=O)CC1S/C(=N/N=C2\\CSC(=O)N2)NC1=O", "note": "(centres undefined)", "Potency": "inconclusive [inhibitor, partial curve]"},
      {"smiles": "CCC(Oc1ccccc1)C(=O)O/N=C(\\N)c1ccc(OC)c(OC)c1", "note": "(centres undefined)", "Potency": "inconclusive [activator, partial curve]"},
      {"smiles": "Cc1c(-c2cccc(Cl)c2)nc2ccccc2c1C(=O)OCC(=O)Nc1ccc2c(c1)OCO2", "Potency": "inconclusive [inhibitor, single point]"},
      {"smiles": "O=C(N/C(=C/c1cn(-c2ccccc2)nc1-c1ccccc1)C(=O)N1CCOCC1)c1ccccc1", "Potency": "inconclusive [inhibitor, single point]"},
      {"smiles": "O=C1c2ccccc2C(=O)c2c1cccc2N1CCOCC1", "Potency": "inconclusive [inhibitor, partial curve]"},
      {"smiles": "CN(C)CC#CCCCCCCC#CCN(C)C", "activity, negative = inhibition": "inactive: 2.3%"},
      {"smiles": "O=C1OCC2=C1C(c1ccc(F)cc1)c1cc3c(cc1N2)OCO3", "note": "(centres undefined)", "Potency": "inconclusive [inhibitor, partial curve]"},
      {"smiles": "O=C(N/N=C/c1cn(CCOc2ccccc2)c2ccccc12)c1ccncc1", "Potency": "inconclusive [inhibitor, partial curve]"},
      {"smiles": "CCOC(=O)C1CCCN(Cc2nc(N)nc(Nc3ccccc3OC)n2)C1", "note": "(centres undefined)", "Potency": "inconclusive [inhibitor, single point]"},
      {"smiles": "Cc1cc(O)ccc1Nc1nc2ccccc2nc1Nc1ccc(O)cc1C", "activity, negative = inhibition": "inactive: -27.1%"},
      {"smiles": "CC(C)CN(C(=O)COC(=O)c1cc2c(s1)CCC2)C1CCS(=O)(=O)C1", "note": "(centres undefined)", "Potency": "inconclusive [inhibitor, single point]"},
      {"smiles": "Fc1ccc(N2N=C(c3cccs3)CC2c2ccco2)c(F)c1", "note": "(centres undefined)", "Potency": "inconclusive [activator, partial curve]"},
      {"smiles": "CCS(=O)(=O)n1nc(-c2ccccc2)nc1SCc1ccccc1", "Potency": "inconclusive [activator, full curve]"},
      {"smiles": "CC(C)(C=O)Cc1cc(C(C)(C)C)c(O)c(C(C)(C)C)c1", "Potency": "inconclusive [activator, partial curve, poor fit]"},
      {"smiles": "O=C(c1ccco1)N1CCN(S(=O)(=O)c2ccc(F)cc2)CC1", "Potency": "inconclusive [inhibitor, single point]"},
      {"smiles": "C=CCn1c(NC(=O)c2ccccc2Cl)c(C#N)c2nc3ccccc3nc21", "activity, negative = inhibition": "inactive: 21.2%"},
      {"smiles": "Cc1cccc(-c2nnc(SCc3nc4ccccc4[nH]3)n2Cc2ccco2)c1", "activity, negative = inhibition": "inactive: -9.85%"},
      {"smiles": "CCOC(=O)c1c(NC(=O)c2ccccc2Cl)sc2c1CCc1ccccc1-2", "Potency": "inconclusive [activator, single point]"},
      {"smiles": "COc1ccc(N2CCN(CCNC(=O)c3ccc4c(c3)[nH]c(=S)n3c5ccccc5nc43)CC2)cc1", "Potency": "inconclusive [inhibitor, full curve, poor fit]"},
      {"smiles": "C#CCN(C#N)c1nc(NCC)nc(NC(C)C)n1", "activity, negative = inhibition": "inactive: 17.3%"},
      {"smiles": "Cc1nc(-c2ccccc2)ccc1C(=O)O", "Potency": "inconclusive [inhibitor, single point]"},
      {"smiles": "O=C(CSc1ccc([N+](=O)[O-])cc1)Nc1cccc(S(=O)(=O)Nc2ccccc2F)c1", "activity, negative = inhibition": "inactive: -8.81%"},
      {"smiles": "Cc1ccccc1C1C2=C(Nc3[nH]n(-c4ccccc4)c(=O)c31)c1ccccc1C2=O", "note": "(centres undefined)", "Potency": "inconclusive [inhibitor, single point]"},
      {"smiles": "Cc1ccc(S(=O)(=O)N2CCCN(c3nc4cc(C)ccc4cc3C#N)CC2)cc1", "Potency": "inconclusive [activator, partial curve]"},
      {"smiles": "CCCNc1nc(-c2ccccc2)c(C(=O)OCC)cc1C#N", "Potency": "inconclusive [activator, partial curve]"}
    ]}
  ]
}
